These are yes or no findings as the source states them, for the method shown. For some assays here: Binding seen in cells or lysates may run through a third protein. Some binding calls cover weakened binding; strength is not graded here.
T1: trefoil factor interactions(z) 1 (TFIZ1) protein (human (endogenous in normal gastric mucosa)) (UniProt Q86XP6)
T1 sequence: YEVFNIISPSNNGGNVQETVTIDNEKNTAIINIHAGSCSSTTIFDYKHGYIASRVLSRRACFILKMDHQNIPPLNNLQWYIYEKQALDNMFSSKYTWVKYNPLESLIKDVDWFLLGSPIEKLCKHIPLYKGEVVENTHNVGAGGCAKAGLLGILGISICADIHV

T2: trefoil protein TFF1 (human (endogenous in normal gastric mucosa)) (UniProt P04155)
T2 sequence: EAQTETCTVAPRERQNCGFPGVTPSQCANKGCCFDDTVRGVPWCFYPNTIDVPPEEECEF


What was measured:
[1] = target: T1, trefoil factor interactions(z) 1 (TFIZ1) protein (human (endogenous in normal gastric mucosa)); assay: non-reducing polyacrylamide gel electrophoresis and Western transfer; cytosol of normal human gastric mucosa electrophoresed without β-mercaptoethanol; TFIZ1 antiserum or TFF1 antibody; shows covalently bound forms
[2] = target: T2, trefoil protein TFF1 (human (endogenous in normal gastric mucosa)); assay: as above
[3] = target: T1, trefoil factor interactions(z) 1 (TFIZ1) protein (human (endogenous in normal gastric mucosa)); assay: co-IP; TFIZ1 immunoprecipitated from normal human gastric cytosol with affinity-purified TFIZ1 antiserum conjugated to protein G Sepharose; 300 mM NaCl, 100 mM Tris-HCl pH 8.0, 0.2% Nonidet-P40, 4 °C overnight; Western transfer with TFF1, TFF2 or TFF3 antibody, reducing or non-reducing gels
[4] = target: T2, trefoil protein TFF1 (human (endogenous in normal gastric mucosa)); assay: co-IP; TFF1 immunoprecipitated from normal human gastric cytosol with TFF1 monoclonal antibody conjugated to protein G Sepharose; 300 mM NaCl, 100 mM Tris-HCl pH 8.0, 0.2% Nonidet-P40, 4 °C overnight; Western transfer with TFIZ1 antiserum, non-reducing and reducing gels

Row | binding [1] | binding [2] | binding [3] | binding [4] | Binder
1 | binds | binds | binds |  | trefoil protein TFF1 (protein, UniProt P04155 25-84) EAQTETCTVAPRERQNCGFPGVTPSQCANKGCCFDDTVRGVPWCFYPNTIDVPPEEECEF
2 | no binding |  |  | binds | trefoil factor interactions(z) 1 (TFIZ1) protein (protein, UniProt Q86XP6 21-184) YEVFNIISPSNNGGNVQETVTIDNEKNTAIINIHAGSCSSTTIFDYKHGYIASRVLSRRACFILKMDHQNIPPLNNLQWYIYEKQALDNMFSSKYTWVKYNPLESLIKDVDWFLLGSPIEKLCKHIPLYKGEVVENTHNVGAGGCAKAGLLGILGISICADIHV
